The other results are listed elsewhere or left out. The protein was read in a cell extract, so binding may be indirect.
target: T1, FLI1 (endogenous, THP-1 nuclear extract) (UniProt Q01543); test: nuclear extract protein-binding microarray (nextPBM); conditions: 20 mM HEPES pH 7.9, 100 mM NaCl, 1 mM DTT, 0.2 mg/mL BSA, 0.02% Triton X-100, 2% milk, 0.4 mg/mL salmon testes DNA; 1 h; temperature not stated; high values mean tight binding; double strand, one strand shown; sequences stand for … in GCCTAGCAC…GTGCTAGGTCTTGATTCGCTTGACGCTGCTG
T1 sequence: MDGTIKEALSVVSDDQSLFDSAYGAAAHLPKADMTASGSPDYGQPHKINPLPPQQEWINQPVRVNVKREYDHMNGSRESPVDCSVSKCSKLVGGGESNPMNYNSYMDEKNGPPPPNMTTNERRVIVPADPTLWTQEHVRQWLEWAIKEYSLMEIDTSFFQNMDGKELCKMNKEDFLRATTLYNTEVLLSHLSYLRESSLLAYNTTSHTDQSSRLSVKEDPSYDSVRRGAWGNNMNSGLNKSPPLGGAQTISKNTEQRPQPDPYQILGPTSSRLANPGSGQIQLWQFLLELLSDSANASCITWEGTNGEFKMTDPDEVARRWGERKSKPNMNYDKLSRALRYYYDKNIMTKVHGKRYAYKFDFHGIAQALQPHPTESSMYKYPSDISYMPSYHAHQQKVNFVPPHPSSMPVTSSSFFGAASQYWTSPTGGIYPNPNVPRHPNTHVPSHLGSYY

Sequence | binding signal [z-score]
GAGAAGAGGAAATGGTGAGA | 2.42
GAGAAGGGGAAGTAGCGTCT | 3.19
TCAGTGGGGAAGTGCTAGGG | 1.24
TGAAAGAGGAAGTGCAATCA | 3.94
ACCAGGAGGAAGTGGTTGCA | 2.5
TAAAAAAGGAACTGCAATTA | 1.1
GGACTGGGGAAGTGGCCTGG | 1.21
